# Experimental data: the supplement of paper PMC12217912
# The list shows a part of the results. Sequences were assembled here from the parent chain. Values near 0.05 are background.
# B1: TEV protease; numbered along this chain (parent)
# chain: MGESLFKGPRDYNPISSSICHLTNESDGHTTSLYGIGFGPFIITNKHLFRRNNGTLVVQSLHGVFKVKDTTTLQQHLVDGRDMIIIRMPKDFPPFPQKLKFREPQREERICLVTTNFQTKSMSSMVSDTSCTFPSGDGIFWKHWIQTKDGQCGSPLVSTRDGFIVGIHSASNFTNTNNYFTSVPKNFMELLTNQEAQQWVSGWRLNADSVLWGGHKVFMVKPEEPFQPVKEATQL
# Variants of: B1
# Experiment: raw area under fraction-flipped curve 0-4 h after induction (AUC4h, not background-subtracted), DNA-recorder readout of cleavage of the substrate (dimensionless); higher = more cleavage of the substrate by the protease variant
# Conditions: temperature: 34 °C; time window: 0-4 h after rhamnose induction
# 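Further: Bxb1 expression induced with 0.2% (w/v) L-rhamnose at OD600 near 0.5, cultures sampled hourly, flipped fraction per protease–substrate barcode pair counted by paired-end Illumina sequencing.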
Variant,area with substrate ENLYDQS,area with substrate ENLYEQS,area with substrate ENLYGQS,area with substrate ENLYHQS,area with substrate ENLYIQS,area with substrate ENLYKQS,area with substrate ENLYLQS,area with substrate ENLYMQS,area with substrate ENLYNQS,area with substrate ENLYPQS,area with substrate ENLYRQS,area with substrate ENLYSQS,area with substrate ENLYTQS,area with substrate ENLYVQS,area with substrate ENLYWQS,area with substrate ENLYYQS,area with substrate ENLYQQS
P96N,0.0119,0.0662,0.0661,0.0613,0.16,0.0482,0.0915,0.0962,0.0702,0.0741,0.0659,0.0813,0.0767,0.091,0.103,0.0638,–
T72N,0.0875,0.0774,0.0618,0.0622,0.143,0.0398,–,0.0808,–,0.0532,0.0465,0.0534,0.0812,0.127,0.0663,0.0669,0.0596
T72C,0.0432,–,–,–,–,–,0.0851,0.0814,0.0874,0.0695,–,0.0702,–,0.105,0.0991,–,0.0448
P184V,0.0635,0.0733,0.0629,0.0499,–,0.0649,–,0.071,–,0.0637,–,0.059,–,–,0.0697,0.0587,0.051
P184I,0.0627,0.0572,0.0607,0.0629,0.0675,0.0622,0.0618,0.0647,0.0594,0.0599,–,0.0639,–,0.094,0.0612,0.0474,0.0626
V64P,0.0568,0.0628,–,0.0735,0.136,–,–,0.0742,0.0431,0.0626,0.0517,0.0616,–,–,0.0988,0.0683,0.0623
L48Q,0.0619,0.0629,0.084,0.0525,0.0584,0.0245,–,0.064,0.0643,0.0597,0.0633,0.0574,0.0598,0.0626,0.0284,0.0454,0.0614
A232M,0.0723,0.0662,0.0711,0.0627,–,0.0299,–,0.0932,0.0512,0.0543,0.0595,–,0.0803,–,0.0812,0.0704,0.0675
A232N,0.0582,–,–,0.0591,0.129,–,–,0.0869,0.0609,–,0.0541,0.0601,0.0457,–,–,–,0.0673
N175K,0.0679,0.0607,0.0655,0.0674,0.12,0.0665,0.069,0.0678,0.0668,0.073,0.0623,0.0745,0.089,0.119,–,0.0595,–
C152L,0.0565,0.0712,–,0.0584,0.0589,0.0601,–,0.0411,0.0595,0.0584,0.0603,0.0627,0.101,0.0391,0.0585,–,–
C152W,0.0582,0.0637,0.0573,0.0634,0.0581,0.0428,–,0.0565,0.0606,0.0609,0.06,0.0571,0.0548,0.0514,0.0542,–,–
D128K,0.0541,–,0.103,0.0469,–,–,–,–,–,–,0.0421,0.0776,0.0882,–,0.0944,–,0.0668
W144M,0.107,0.113,–,0.0777,0.078,0.0606,–,–,0.0608,0.0758,0.0628,–,0.06,0.0969,–,0.0694,0.0503
H168E,0.052,0.0564,0.0491,–,–,0.0571,0.0559,0.0485,0.0541,0.0697,0.0648,0.0584,0.0582,–,0.0497,–,0.0491
H168M,0.0639,0.0476,0.0667,0.0568,0.0614,0.0488,0.0559,0.0612,–,0.0648,0.061,0.0629,0.0147,0.0644,0.0602,0.0629,0.0579
S32L,0.0464,0.0594,–,0.0704,0.118,–,–,0.0865,0.0764,0.0651,0.0387,–,0.0695,–,0.0852,–,0.0648
T192G,0.0704,0.0634,0.0514,–,0.0596,0.0693,–,0.0738,0.07,0.0618,–,0.0595,0.0739,–,0.0769,–,–
E224R,0.0724,0.0815,0.0554,0.0543,0.104,0.073,–,–,0.0664,–,0.0493,–,–,0.108,0.0936,0.0418,0.066
E224S,0.0673,0.0636,0.0696,0.0662,0.117,0.0655,0.0973,0.0846,–,0.0576,–,0.073,0.081,0.112,0.0847,0.0535,0.0729
M88W,0.0524,0.0608,0.058,0.0557,0.106,0.0454,–,0.0729,0.0621,0.0604,0.0499,–,–,0.0701,–,0.0635,0.0534
T174D,0.0582,0.0636,0.0566,0.0659,0.113,0.071,–,0.0728,0.0723,0.0679,0.0678,0.064,0.0793,0.0883,0.08,0.0649,0.0642
L56Q,0.0499,0.0416,–,–,–,0.0254,–,0.0508,0.0193,0.0314,–,0.0456,0.0482,–,0.0337,–,0.0277
S16G,0.0635,0.0571,0.0662,0.0878,0.132,0.0545,–,–,0.0644,0.0749,0.0609,0.0769,0.0753,–,0.0943,0.0633,0.0482
N24Y,0.0559,0.0489,0.0786,0.071,–,0.0578,–,0.0692,0.0659,0.0791,0.0517,–,0.0629,–,0.071,0.0626,0.0594
N24C,0.0651,0.0706,0.0724,0.063,0.0975,0.059,0.0573,0.0648,0.0633,0.0784,0.0608,0.078,0.0767,0.11,0.0805,–,0.0658
P104W,0.0343,0.058,0.0611,0.0739,–,0.0614,0.0495,0.0554,0.0592,0.0565,0.0482,–,0.0554,0.0576,0.0334,0.0448,0.0656
